T1: mouse properdin (mouse, UniProt P11680 23-464, biotinylated)
T1 construct: Recombinant, made in house; In the hemolysis assays the target is the properdin of mouse serum; also called mouse properdin-biotin; mouse FP
T1 sequence (looked up): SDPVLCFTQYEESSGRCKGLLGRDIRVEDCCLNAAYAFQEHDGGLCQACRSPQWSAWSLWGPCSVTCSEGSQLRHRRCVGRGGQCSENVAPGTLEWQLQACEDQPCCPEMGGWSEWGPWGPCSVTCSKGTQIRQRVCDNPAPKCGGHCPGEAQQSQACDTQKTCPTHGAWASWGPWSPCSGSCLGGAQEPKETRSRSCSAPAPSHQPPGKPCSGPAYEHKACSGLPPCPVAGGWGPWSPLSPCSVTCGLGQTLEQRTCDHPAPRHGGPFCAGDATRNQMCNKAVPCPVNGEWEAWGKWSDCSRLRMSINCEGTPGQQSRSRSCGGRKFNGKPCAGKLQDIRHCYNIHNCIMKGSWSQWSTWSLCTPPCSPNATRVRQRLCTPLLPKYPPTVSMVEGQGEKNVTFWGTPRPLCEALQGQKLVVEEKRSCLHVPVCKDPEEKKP

T2: human properdin (human, UniProt P27918 28-469, biotinylated)
T2 construct: Recombinant, made in house; tag not described; In the hemolysis assays the target is the properdin of human serum; also called human properdin-biotin; biotin human Properdin
T2 sequence (looked up): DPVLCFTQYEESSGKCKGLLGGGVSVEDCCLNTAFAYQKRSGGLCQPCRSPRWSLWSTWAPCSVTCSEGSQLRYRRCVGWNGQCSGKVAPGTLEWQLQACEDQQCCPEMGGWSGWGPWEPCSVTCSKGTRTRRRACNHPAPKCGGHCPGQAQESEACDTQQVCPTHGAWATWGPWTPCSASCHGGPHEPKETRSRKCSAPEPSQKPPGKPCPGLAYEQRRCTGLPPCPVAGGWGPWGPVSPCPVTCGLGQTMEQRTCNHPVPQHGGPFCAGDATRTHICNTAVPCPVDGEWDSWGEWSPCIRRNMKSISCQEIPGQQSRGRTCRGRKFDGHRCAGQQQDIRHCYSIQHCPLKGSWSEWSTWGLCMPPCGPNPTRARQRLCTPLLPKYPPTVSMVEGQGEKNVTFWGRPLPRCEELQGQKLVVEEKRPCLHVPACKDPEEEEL


Experiments:
mouse properdin [1] = target: T1, mouse properdin; experiment: target-binding ELISA on mouse properdin
human properdin [2] = target: T2, human properdin; experiment: target-binding ELISA on human properdin
mouse properdin [3] = target: T1, mouse properdin; experiment: ELISA on biotinylated properdin captured on streptavidin, anti-human IgG Fc-HRP
human properdin [4] = target: T2, human properdin; experiment: as above

Binder | binding result (mouse properdin [1]) | binding result (human properdin [2]) | binding result (mouse properdin [3]) | binding result (human properdin [4])
SLN12024 (Fc-SLN7152-(G4S)3-SLN7155) (Fc fusion, Bi-paratopic Fc-VHH-VHH) [human IgG4 Fc with S228P (EU numbers) not written out]GGGGSGGGSSGGGGSDVQLVESGGGSVQVGGSLRLSCVDTSYTYTHYCMGWFRQAPGKEREGVAVMTTDGWTRYADSVKGRFIISKDNAKNTLYLQMNSLKLEDTAMYYCATNPWDSCTTGISTPSTFRTWGQGTQVTVSSGGGGSGGGGSGGGGSKVQLVESGGGSVQAGGSLRLSCAASGYTYSIGCMGWFRQAPGKEREGVAAIDSDGSTSYADSVKGRFTISKHNAKNTLYLQMDSLKPEDTAMYYCAADVHPIGHPVAGPHLKSADFGYWGQGTQVTVSS | binds | binds |  | 
SLN12059 (Fc-SLN12036-(G4S)3-SLN7160) (Fc fusion, Bi-paratopic Fc-VHH-VHH) [human IgG4 Fc with S228P (EU numbers) not written out]GGGGSGGGSSGGGGSHVQLVESGGGSVQAGGSLRLSCAHPEYTSSSYCMAWIRQAPGKEREGVAAIDTDGSTSYTDSVKGRFTISKDNAKNTLYLQMNNLKPEDTAMYYCAAAPWLLAYGDYCVTRPDFGEWGQGTQVTVSSGGGGSGGGGSGGGGSHVQLVESGGGSVQSGGSLRLSCAASAYIYSSYCMGWFRQAPGKERERVSVINSDGRTSYADSVKGRFTISQDNAKNTLYLQMNSLKPEDTAMYYCAAVILPPTDGMEYSCNYPAAEYNYWGQGTQVTVSS | binds | binds |  | 
SLN12021 (Fc-SLN7150-(G4S)3-SLN7155) (Fc fusion, Bi-paratopic Fc-VHH-VHH) [human IgG4 Fc with S228P (EU numbers) not written out]GGGGSGGGSSGGGGSHVQLVESGGGSVQAGGSLRLSCEAFEYYYCMGWFRQAPGKEREGVASFDTSDGSKYYADSVKGRFTISKDIAKNTLYLEMNILQAEDTAMYYCAARPFYVGGTCLPRLTDFSIWGQGTQVTVSSGGGGSGGGGSGGGGSKVQLVESGGGSVQAGGSLRLSCAASGYTYSIGCMGWFRQAPGKEREGVAAIDSDGSTSYADSVKGRFTISKHNAKNTLYLQMDSLKPEDTAMYYCAADVHPIGHPVAGPHLKSADFGYWGQGTQVTVSS | binds | binds |  | 
SLN12026 (Fc-SLN7152-(G4S)3-SLN7162) (Fc fusion, Bi-paratopic Fc-VHH-VHH) [human IgG4 Fc with S228P (EU numbers) not written out]GGGGSGGGSSGGGGSDVQLVESGGGSVQVGGSLRLSCVDTSYTYTHYCMGWFRQAPGKEREGVAVMTTDGWTRYADSVKGRFIISKDNAKNTLYLQMNSLKLEDTAMYYCATNPWDSCTTGISTPSTFRTWGQGTQVTVSSGGGGSGGGGSGGGGSQVQLVESGGGSVQSGGSLRLSCVDSGYTYGHYCMGWFRQAPGKEREGVAAIRRDGVTRYADSVKGRFTISLDNAKSTLYLQMNSLKAEDTAMYYCATQRDCGISGLLWQSSVGYWGQGTQVTVSS | binds | binds |  | 
SLN12058 (Fc-SLN12036-(G4S)3-SLN7155) (Fc fusion, Bi-paratopic Fc-VHH-VHH) [human IgG4 Fc with S228P (EU numbers) not written out]GGGGSGGGSSGGGGSHVQLVESGGGSVQAGGSLRLSCAHPEYTSSSYCMAWIRQAPGKEREGVAAIDTDGSTSYTDSVKGRFTISKDNAKNTLYLQMNNLKPEDTAMYYCAAAPWLLAYGDYCVTRPDFGEWGQGTQVTVSSGGGGSGGGGSGGGGSKVQLVESGGGSVQAGGSLRLSCAASGYTYSIGCMGWFRQAPGKEREGVAAIDSDGSTSYADSVKGRFTISKHNAKNTLYLQMDSLKPEDTAMYYCAADVHPIGHPVAGPHLKSADFGYWGQGTQVTVSS | binds | binds |  | 

Further lines, results first:

binding result (mouse properdin [1]) | binding result (human properdin [2]) | binding result (mouse properdin [3]) | binding result (human properdin [4]) | Binder
binds | binds |  |  | SLN12060 (Fc-SLN12036-(G4S)3-SLN7162) (Fc fusion, Bi-paratopic Fc-VHH-VHH) [human IgG4 Fc with S228P (EU numbers) not written out]GGGGSGGGSSGGGGSHVQLVESGGGSVQAGGSLRLSCAHPEYTSSSYCMAWIRQAPGKEREGVAAIDTDGSTSYTDSVKGRFTISKDNAKNTLYLQMNNLKPEDTAMYYCAAAPWLLAYGDYCVTRPDFGEWGQGTQVTVSSGGGGSGGGGSGGGGSQVQLVESGGGSVQSGGSLRLSCVDSGYTYGHYCMGWFRQAPGKEREGVAAIRRDGVTRYADSVKGRFTISLDNAKSTLYLQMNSLKAEDTAMYYCATQRDCGISGLLWQSSVGYWGQGTQVTVSS
 |  | no binding (tested: starting from 50 nM) | no binding (tested: starting from 50 nM) | SLN6073 VEGF inhibiting protein, as used in Example 3.10 (Fc fusion, G4Fc fused to the C-terminus) EVQLVESGGGLVQPGGSLRLSCAASVYTSSTYYMAWFRQAPGKGREGVAAAYAGGGGTVYADSVKGRFTISQDNSKNTLYLQMNSLRAEDTAVYYCAARMSRLLGMAPLLPEHYDSWGQGTLVTVSSGGGGSGGGGSGGGGSEVQLVESGGGLVQPGGSLRLSCAASRDAYFNNYMAWFRQAPGKGLEGVSSIATNTGNDYYADSVKGRFTISRDNSKNTIYLQMNSLRAEDTAVYYCAAGWRGGSFWTPSKYSYWGQGTLVTVSS[human IgG4 Fc with S228P (EU numbers) not written out]
binds | binds |  |  | SLN12023 (Fc-SLN7150-(G4S)3-SLN7162) (Fc fusion, Bi-paratopic Fc-VHH-VHH) [human IgG4 Fc with S228P (EU numbers) not written out]GGGGSGGGSSGGGGSHVQLVESGGGSVQAGGSLRLSCEAFEYYYCMGWFRQAPGKEREGVASFDTSDGSKYYADSVKGRFTISKDIAKNTLYLEMNILQAEDTAMYYCAARPFYVGGTCLPRLTDFSIWGQGTQVTVSSGGGGSGGGGSGGGGSQVQLVESGGGSVQSGGSLRLSCVDSGYTYGHYCMGWFRQAPGKEREGVAAIRRDGVTRYADSVKGRFTISLDNAKSTLYLQMNSLKAEDTAMYYCATQRDCGISGLLWQSSVGYWGQGTQVTVSS
binds | binds |  |  | SLN12025 (Fc-SLN7152-(G4S)3-SLN7160) (Fc fusion, Bi-paratopic Fc-VHH-VHH) [human IgG4 Fc with S228P (EU numbers) not written out]GGGGSGGGSSGGGGSDVQLVESGGGSVQVGGSLRLSCVDTSYTYTHYCMGWFRQAPGKEREGVAVMTTDGWTRYADSVKGRFIISKDNAKNTLYLQMNSLKLEDTAMYYCATNPWDSCTTGISTPSTFRTWGQGTQVTVSSGGGGSGGGGSGGGGSHVQLVESGGGSVQSGGSLRLSCAASAYIYSSYCMGWFRQAPGKERERVSVINSDGRTSYADSVKGRFTISQDNAKNTLYLQMNSLKPEDTAMYYCAAVILPPTDGMEYSCNYPAAEYNYWGQGTQVTVSS
binds | binds |  |  | SLN12061 (Fc-SLN7150-(G4S)3-SLN12036) (Fc fusion, Bi-paratopic Fc-VHH-VHH) [human IgG4 Fc with S228P (EU numbers) not written out]GGGGSGGGSSGGGGSHVQLVESGGGSVQAGGSLRLSCEAFEYYYCMGWFRQAPGKEREGVASFDTSDGSKYYADSVKGRFTISKDIAKNTLYLEMNILQAEDTAMYYCAARPFYVGGTCLPRLTDFSIWGQGTQVTVSSGGGGSGGGGSGGGGSHVQLVESGGGSVQAGGSLRLSCAHPEYTSSSYCMAWIRQAPGKEREGVAAIDTDGSTSYTDSVKGRFTISKDNAKNTLYLQMNNLKPEDTAMYYCAAAPWLLAYGDYCVTRPDFGEWGQGTQVTVSS
binds | binds |  |  | SLN12022 (Fc-SLN7150-(G4S)3-SLN7160) (Fc fusion, Bi-paratopic Fc-VHH-VHH) [human IgG4 Fc with S228P (EU numbers) not written out]GGGGSGGGSSGGGGSHVQLVESGGGSVQAGGSLRLSCEAFEYYYCMGWFRQAPGKEREGVASFDTSDGSKYYADSVKGRFTISKDIAKNTLYLEMNILQAEDTAMYYCAARPFYVGGTCLPRLTDFSIWGQGTQVTVSSGGGGSGGGGSGGGGSHVQLVESGGGSVQSGGSLRLSCAASAYIYSSYCMGWFRQAPGKERERVSVINSDGRTSYADSVKGRFTISQDNAKNTLYLQMNSLKPEDTAMYYCAAVILPPTDGMEYSCNYPAAEYNYWGQGTQVTVSS

Source: US20250034239A1 (LINNO PHARMACEUTICALS, published 2025)
